Assay results as given in the BET-seq Pho4 binding data (Le et al. 2018).
The other results are listed elsewhere or left out. The energies were worked out here from pooled read counts, against the library average; single values are noisy.

Each sequence was assayed against T1, Pho4 (S. cerevisiae) (UniProt P07270) (assay: relative binding free energy (BET-seq); higher = weaker binding). Conditions: reference: library average.
T1 sequence: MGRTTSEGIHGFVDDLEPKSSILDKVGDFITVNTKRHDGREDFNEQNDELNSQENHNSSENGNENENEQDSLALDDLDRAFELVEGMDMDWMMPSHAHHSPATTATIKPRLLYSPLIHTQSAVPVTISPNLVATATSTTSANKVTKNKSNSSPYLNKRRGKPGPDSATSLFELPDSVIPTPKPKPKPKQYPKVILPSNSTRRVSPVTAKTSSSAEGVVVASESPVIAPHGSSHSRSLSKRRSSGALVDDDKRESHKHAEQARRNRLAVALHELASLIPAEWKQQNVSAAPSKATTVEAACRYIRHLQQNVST
In the case of GTTCACACGTGTTGTA, the “relative binding free energy” value is reported as 0.15 kcal/mol. In the case of TTTTACACGTGTGATC, the “relative binding free energy” value is reported as 0.14 kcal/mol. In the case of CGGTTCACGTGCATGT, the “relative binding free energy” value is reported as 0.2 kcal/mol. GGGCGCACGTGTTGGG was tested, and the “relative binding free energy” value was 0.01 kcal/mol. GGAGGCACGTGAAAAG was tested, and the “relative binding free energy” value was 0.16 kcal/mol. With CTATGCACGTGAGGTT the “relative binding free energy” value was 0.32 kcal/mol. For GGTTCCACGTGCTGGG, the “relative binding free energy” value was 0.1 kcal/mol. TATGGCACGTGTTTCA was tested, and the “relative binding free energy” value was -0.12 kcal/mol. In the case of TGAATCACGTGATGTG, the “relative binding free energy” value is reported as 0.2 kcal/mol. For CGGTGCACGTGTAGCG, the “relative binding free energy” value was -0.06 kcal/mol. With TTAGTCACGTGGTACG the “relative binding free energy” value was 0.11 kcal/mol. For TATAACACGTGTTGTT, the “relative binding free energy” value was -0.03 kcal/mol. For GTGCGCACGTGCTGGT, the “relative binding free energy” value was -0.32 kcal/mol. For TGTAGCACGTGCGGTA, the “relative binding free energy” value was -0.08 kcal/mol. In the case of CGTTGCACGTGGGGTA, the “relative binding free energy” value is reported as -0.1 kcal/mol. With TGTATCACGTGATTGT the “relative binding free energy” value was 0.33 kcal/mol. For GTGTGCACGTGGGCAT, the “relative binding free energy” value was -0.08 kcal/mol. With AGGGTCACGTGGGGGT the “relative binding free energy” value was -0.12 kcal/mol. GGGAACACGTGGGATA was tested, and the “relative binding free energy” value was 0.04 kcal/mol. In the case of ATCGTCACGTGTAGGC, the “relative binding free energy” value is reported as 0.28 kcal/mol. With AATTTCACGTGAGATA the “relative binding free energy” value was 0.51 kcal/mol. In the case of TGTGTCACGTGAGTCT, the “relative binding free energy” value is reported as 0.36 kcal/mol. In the case of AGGCGCACGTGTGGAT, the “relative binding free energy” value is reported as -0.1 kcal/mol. AACTTCACGTGTTTAG was tested, and the “relative binding free energy” value was 0.25 kcal/mol. With TTGGACACGTGGGATC the “relative binding free energy” value was -0.05 kcal/mol. GTTGGCACGTGCCGTG was tested, and the “relative binding free energy” value was -0.1 kcal/mol. With CGCTGCACGTGAGGTG the “relative binding free energy” value was 0.23 kcal/mol. For TTGTTCACGTGCCATT, the “relative binding free energy” value was 0.29 kcal/mol. In the case of GCTTTCACGTGATGAG, the “relative binding free energy” value is reported as 0.39 kcal/mol. For CAGGGCACGTGGGCTG, the “relative binding free energy” value was -0.33 kcal/mol. For AAGGGCACGTGGTCAG, the “relative binding free energy” value was -0.15 kcal/mol. In the case of TTGTACACGTGTATGC, the “relative binding free energy” value is reported as 0.14 kcal/mol. TGGCACACGTGTTGGG was tested, and the “relative binding free energy” value was 0.15 kcal/mol. In the case of TTGCTCACGTGGATTG, the “relative binding free energy” value is reported as 0.16 kcal/mol. In the case of GGACGCACGTGTGGGG, the “relative binding free energy” value is reported as -0.11 kcal/mol. GGGGACACGTGGTCAA was tested, and the “relative binding free energy” value was -0.03 kcal/mol. In the case of GGTGGCACGTGATAAA, the “relative binding free energy” value is reported as -0.03 kcal/mol. For TGTGACACGTGGTATG, the “relative binding free energy” value was -0.09 kcal/mol. In the case of ATACTCACGTGGTATT, the “relative binding free energy” value is reported as 0.19 kcal/mol. With ATGCACACGTGGAGGG the “relative binding free energy” value was 0.1 kcal/mol. With ATTGGCACGTGGCCTG the “relative binding free energy” value was -0.15 kcal/mol. In the case of CTGAGCACGTGAGGGG, the “relative binding free energy” value is reported as 0.11 kcal/mol. With AGAGACACGTGATTTG the “relative binding free energy” value was 0.06 kcal/mol. In the case of CTGTGCACGTGTAAGT, the “relative binding free energy” value is reported as 0.15 kcal/mol. With ATTTGCACGTGAAAAG the “relative binding free energy” value was 0.08 kcal/mol. In the case of GGTGTCACGTGAGCTT, the “relative binding free energy” value is reported as 0.23 kcal/mol. In the case of TGTAGCACGTGCATAG, the “relative binding free energy” value is reported as -0.09 kcal/mol. For GAGGTCACGTGAAGGA, the “relative binding free energy” value was 0.35 kcal/mol. GGGTACACGTGCGTTT was tested, and the “relative binding free energy” value was 0.09 kcal/mol. For GGCGACACGTGTAAGG, the “relative binding free energy” value was 0.26 kcal/mol. In the case of AGGGACACGTGAGTTT, the “relative binding free energy” value is reported as 0.47 kcal/mol. For TTTTTCACGTGTAATC, the “relative binding free energy” value was 0.4 kcal/mol. In the case of TCGGCCACGTGGGCAG, the “relative binding free energy” value is reported as 0 kcal/mol. In the case of GGGATCACGTGAAGTG, the “relative binding free energy” value is reported as 0.37 kcal/mol. For TTAATCACGTGGATGC, the “relative binding free energy” value was 0.11 kcal/mol. In the case of ATCGACACGTGGGGTG, the “relative binding free energy” value is reported as 0.02 kcal/mol. In the case of TGGATCACGTGGGTGC, the “relative binding free energy” value is reported as 0.13 kcal/mol. For TAAGGCACGTGACGTA, the “relative binding free energy” value was -0.07 kcal/mol. With TTAATCACGTGGAGCG the “relative binding free energy” value was 0.15 kcal/mol. For GGTGACACGTGGCTTT, the “relative binding free energy” value was 0.03 kcal/mol. With TGGGGCACGTGACGGT the “relative binding free energy” value was 0.01 kcal/mol. In the case of TGGTACACGTGGCAGT, the “relative binding free energy” value is reported as 0.05 kcal/mol. With ACGATCACGTGAGGGG the “relative binding free energy” value was 0.13 kcal/mol. In the case of AGGTACACGTGTAGGT, the “relative binding free energy” value is reported as 0.19 kcal/mol. For GTTTGCACGTGCATAG, the “relative binding free energy” value was -0.09 kcal/mol. For GAAAGCACGTGGGGTG, the “relative binding free energy” value was -0.19 kcal/mol. For ATAGGCACGTGTTTAC, the “relative binding free energy” value was -0.13 kcal/mol. For GGGGCCACGTGGGCAA, the “relative binding free energy” value was -0.11 kcal/mol. GTAGTCACGTGATGTA was tested, and the “relative binding free energy” value was 0.17 kcal/mol. For GGGTTCACGTGCAGTT, the “relative binding free energy” value was 0.31 kcal/mol. For CTTGTCACGTGTGTCG, the “relative binding free energy” value was 0.01 kcal/mol. With AGAGTCACGTGGCTGG the “relative binding free energy” value was -0.1 kcal/mol. In the case of GAAGGCACGTGTTTGT, the “relative binding free energy” value is reported as -0.2 kcal/mol. TCAGGCACGTGTTCGG was tested, and the “relative binding free energy” value was -0.11 kcal/mol. In the case of GATGGCACGTGGATTA, the “relative binding free energy” value is reported as 0.06 kcal/mol. In the case of TTAGGCACGTGGCTAG, the “relative binding free energy” value is reported as -0.08 kcal/mol. In the case of TCTGGCACGTGGGGCA, the “relative binding free energy” value is reported as -0.37 kcal/mol. TTATTCACGTGGTCGA was tested, and the “relative binding free energy” value was 0.12 kcal/mol. ATGGACACGTGAGTGG was tested, and the “relative binding free energy” value was 0.11 kcal/mol. With TGCGGCACGTGTTCTG the “relative binding free energy” value was -0.07 kcal/mol. CATTGCACGTGCGTTT was tested, and the “relative binding free energy” value was 0.01 kcal/mol. In the case of GTTATCACGTGTAGAT, the “relative binding free energy” value is reported as 0.13 kcal/mol. In the case of AGTCGCACGTGGTAGT, the “relative binding free energy” value is reported as -0.18 kcal/mol. In the case of GGGGCCACGTGGAGCT, the “relative binding free energy” value is reported as -0.05 kcal/mol. In the case of ATTTTCACGTGTAATT, the “relative binding free energy” value is reported as 0.31 kcal/mol. In the case of CTTATCACGTGATTTG, the “relative binding free energy” value is reported as 0.28 kcal/mol. With TTCTACACGTGTGTAT the “relative binding free energy” value was 0.13 kcal/mol. With TGGGTCACGTGTCTGC the “relative binding free energy” value was 0.15 kcal/mol. With ATAATCACGTGTCGTA the “relative binding free energy” value was 0.22 kcal/mol. In the case of TATACCACGTGTTGTT, the “relative binding free energy” value is reported as -0.2 kcal/mol. TCTTTCACGTGTTTCT was tested, and the “relative binding free energy” value was 0.23 kcal/mol. TGATTCACGTGACTGG was tested, and the “relative binding free energy” value was 0.23 kcal/mol. In the case of TTATACACGTGAAATG, the “relative binding free energy” value is reported as 0.12 kcal/mol. With GGCGGCACGTGCTTTT the “relative binding free energy” value was 0.11 kcal/mol. In the case of AAGGACACGTGGCGGG, the “relative binding free energy” value is reported as 0.06 kcal/mol. CTTCTCACGTGGTTGT was tested, and the “relative binding free energy” value was 0.17 kcal/mol. AGATTCACGTGTAGGG was tested, and the “relative binding free energy” value was 0.19 kcal/mol. In the case of GTCTCCACGTGTGGGT, the “relative binding free energy” value is reported as 0.08 kcal/mol. GGATTCACGTGGCATG was tested, and the “relative binding free energy” value was 0.29 kcal/mol. With TGGTCCACGTGGTAGG the “relative binding free energy” value was -0.04 kcal/mol. CGTAGCACGTGTATTG was tested, and the “relative binding free energy” value was -0.16 kcal/mol. TGGGACACGTGTATAA was tested, and the “relative binding free energy” value was 0.14 kcal/mol. For ATATGCACGTGGGCTA, the “relative binding free energy” value was -0.32 kcal/mol. For TCGGACACGTGTGGAG, the “relative binding free energy” value was 0.22 kcal/mol. AAAAGCACGTGAAGGG was tested, and the “relative binding free energy” value was 0.31 kcal/mol. For ATATACACGTGTGGTA, the “relative binding free energy” value was -0.14 kcal/mol. In the case of GTGTGCACGTGGTTAC, the “relative binding free energy” value is reported as 0.05 kcal/mol. In the case of TTTATCACGTGCAGGC, the “relative binding free energy” value is reported as 0.15 kcal/mol. GTGAACACGTGGCGTG was tested, and the “relative binding free energy” value was -0.13 kcal/mol. For ATATTCACGTGTAATG, the “relative binding free energy” value was 0.13 kcal/mol. With CGAGGCACGTGGCTGG the “relative binding free energy” value was -0.07 kcal/mol. In the case of GTCGTCACGTGATGTG, the “relative binding free energy” value is reported as 0.21 kcal/mol. With TCGTTCACGTGATAAT the “relative binding free energy” value was 0.32 kcal/mol. In the case of GGGGCCACGTGGTAGC, the “relative binding free energy” value is reported as -0.12 kcal/mol. With GAGGTCACGTGGATGT the “relative binding free energy” value was 0.1 kcal/mol.
